According to PubChem BioAssay (Tox21):
“And” between values parts separate entries of the source, which are not always exact repeats. Equal values may be shown once. The inconclusive results got no clear call from the source; some entries with a clear call stand among them for comparison. For part of these data: Potencies beside an inconclusive call are fits to weak or partial responses and may not hold up. Where a structure was tested more than once in an assay, its records may differ in their call. The source made the active and inactive calls. Unless noted, the call rests on the fitted dose curve; in most records, active means well fitted curve in the direction sought with a large enough effect in the repeat runs; inconclusive means weak or mixed curves; inactive means no such curve, though single readings can be large; an effect the other way counts as inactive or inconclusive.

Columns and labels:
[1] = qHTS assay to identify small molecule agonists of the TGF-beta/Smad signaling pathway - cell viability counter screen (AID 1346829); settings: SBE-bla HEK293T viability, CellTiter-Glo luminescence, 5 h; series mostly up to 76.8 µM; further: potency means the concentration at half of the fitted maximal effect; nearly all actives have a fitted effect of over 45% in size
In short: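 Compound-treated SBE-bla HEK 293T cells (5 hr, 37 C) were assessed for viability with CellTiter-Glo in parallel with the reporter read.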

[2] = Caspase-3/7 induction in HepG2 cells by small molecules, qHTS cell viability counter screen (AID 1346981); settings: CellTiter-Fluor fluorescence, 17 h; series mostly up to 92.4 µM; further: potency means the concentration at half of the fitted maximal effect; nearly all actives have a fitted effect of over 30% in size
In short: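 HepG2, WT, 2,000 cells/well; 5 hr pre-incubation 37 C/5% CO2; compound pin-transferred from DMSO; 16 hr exposure; CellTiter-Fluor, 1 hr; fluorescence read.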

[3] = biological target: Acetylcholinesterase (Homo sapiens) (UniProt P22303); test: Acetylcholinesterase (AChE) small molecule antagonists: colormetric cell-based qHTS assay (AID 1347395; calls by dose curve; further: potency means the concentration at half of the fitted maximal effect; nearly all actives have a fitted effect of over 30% in size); settings: SH-SY5Y cells AChE activity, colorimetric (Ellman); series mostly up to 115 µM
UniProt P22303, sequence (P22303 whole entry, looked up): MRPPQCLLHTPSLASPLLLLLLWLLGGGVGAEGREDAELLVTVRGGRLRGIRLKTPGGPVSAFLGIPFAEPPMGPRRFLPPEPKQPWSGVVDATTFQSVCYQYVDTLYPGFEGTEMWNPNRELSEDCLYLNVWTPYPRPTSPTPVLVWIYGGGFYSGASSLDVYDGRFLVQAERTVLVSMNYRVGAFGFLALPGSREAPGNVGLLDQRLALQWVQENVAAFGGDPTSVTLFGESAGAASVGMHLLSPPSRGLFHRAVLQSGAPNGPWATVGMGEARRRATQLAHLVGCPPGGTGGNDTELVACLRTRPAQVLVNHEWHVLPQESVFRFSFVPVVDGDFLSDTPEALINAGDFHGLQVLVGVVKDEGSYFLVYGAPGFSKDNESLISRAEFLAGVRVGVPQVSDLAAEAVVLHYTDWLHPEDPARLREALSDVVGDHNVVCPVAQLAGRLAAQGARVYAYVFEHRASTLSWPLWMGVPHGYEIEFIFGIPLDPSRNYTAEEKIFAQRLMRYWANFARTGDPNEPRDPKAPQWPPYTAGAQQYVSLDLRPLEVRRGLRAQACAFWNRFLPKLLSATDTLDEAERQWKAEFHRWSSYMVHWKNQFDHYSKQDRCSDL
In short: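 Colorimetric read-out: DTNB detects thiocholine released when cellular AChE in SH-SY5Y cells hydrolyses acetylthiocholine. Cells attached overnight, received compound for 30 min at 37 C, then substrate mix for 90 min at 37 C.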

[4] = biological target: Cytochrome P450 2D6 (Homo sapiens) (UniProt P10635); test: Cytochrome P450 Family 2 Subfamily D Member 6 (CYP2D6) small molecule antagonists: luciferase reporter qHTS assay (AID 1671196); settings: P450-Glo CYP2D6 enzyme assay, luciferin luminescence, 1 h; series mostly up to 115 µM; further: nearly all actives have a fitted effect of over 50% in size; further: potency means the concentration at half of the fitted maximal effect
UniProt P10635, sequence (P10635 whole entry, looked up): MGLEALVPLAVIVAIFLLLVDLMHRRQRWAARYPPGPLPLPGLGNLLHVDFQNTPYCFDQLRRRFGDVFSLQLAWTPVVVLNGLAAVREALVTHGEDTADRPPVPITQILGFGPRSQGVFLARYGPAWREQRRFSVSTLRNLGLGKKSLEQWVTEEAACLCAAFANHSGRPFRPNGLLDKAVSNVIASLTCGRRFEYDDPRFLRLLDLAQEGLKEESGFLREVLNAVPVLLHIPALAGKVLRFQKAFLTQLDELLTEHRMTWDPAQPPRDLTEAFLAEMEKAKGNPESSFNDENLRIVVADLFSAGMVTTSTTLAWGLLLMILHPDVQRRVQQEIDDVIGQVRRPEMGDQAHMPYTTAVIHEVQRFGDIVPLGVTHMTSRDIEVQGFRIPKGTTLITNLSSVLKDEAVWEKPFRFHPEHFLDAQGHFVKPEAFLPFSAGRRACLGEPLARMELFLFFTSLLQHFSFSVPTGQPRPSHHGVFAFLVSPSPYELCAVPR
In short: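 Read-out is luminescence from luciferin formed by CYP2D6 turnover of a proluciferin substrate, recorded as relative luminescence units. Reactions ran 1 h at room temperature after NADPH regeneration solution was added.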

[5] = qHTS assay to identify small molecule agonists of the TGF-beta/Smad signaling pathway (AID 1346859; active means well fitted activation curve with a large enough effect in the signal ratio in the repeat runs, not every such curve was filed as active; inconclusive means weak or mixed curves; the % refers to the signal ratio; further: potency means the concentration at half of the fitted maximal effect; on activation: on the % scale 0 is the no-effect control and ±100 the full control effect); settings: SBE-bla HEK293T, TGF-beta/Smad beta-lactamase reporter, 5 h; activation: at 76.8 µM (top of the series) unless noted
In short: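 SBE-bla HEK 293T, 4,000 cells/well, plated o/n; cpd in DMSO, 5 hr, 37 C/5% CO2; B/G FRET substrate 2 hr RT; ex 405, em 460/530 nm.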

[6] = qHTS assay to identify small molecule antagonists of the TGF-beta/Smad signaling pathway (AID 1346924; active means well fitted inhibition curve with a large enough effect in the signal ratio in the repeat runs, not every such curve was filed as active; inconclusive means weak or mixed curves; the % refers to the signal ratio; further: potency means the concentration at half of the fitted maximal effect); settings: SBE-bla HEK293T, TGF-beta/Smad reporter, beta-lactamase ratio
In short: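 SBE-bla HEK 293T cells were plated overnight, then received compound in DMSO plus TGF-beta1 (added as a 0.25 ng/mL solution) and were incubated 5 h at 37 C. Beta-lactamase reporter activity was read after 2 h at room temperature with LiveBLAzer B/G FRET substrate (ex 405, em 460/530 nm).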

[7] = Human pregnane X receptor (PXR) small molecule agonists, qHTS cell viability counter screen (AID 1346977); settings: PXR-Luc HepG2 viability, CellTiter-Fluor, 24 h; series mostly up to 92.4 µM; further: potency means the concentration at half of the fitted maximal effect; nearly all actives have a fitted effect of over 50% in size
In short: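 PXR-Luc HepG2, 2,000 cells/well, 5% charcoal-stripped FBS; 5hr settle; cpd 24hr, 37C/5% CO2; CellTiter-Fluor at 23hr, read 1hr later (fluorescence).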

[8] = Caspase-3/7 induction in CHO-K1 cells by small molecules, qHTS assay (AID 1346980); settings: CHO-K1 caspase-3/7 induction, Caspase-Glo luminescence, 17 h; series mostly up to 92.4 µM; further: nearly all actives have a fitted effect of over 15% in size; further: potency means the concentration at half of the fitted maximal effect
In short: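 Luminescent Caspase-Glo 3/7 read (30min, room temperature) quantified apoptosis induction. Cells were wild-type CHO-K1, treated with compound for 17hr at 37 C and 5% CO2.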

[9] = biological target: Nuclear receptor subfamily 1 group I member 2 (Homo sapiens) (UniProt O75469); test: Human pregnane X receptor (PXR) small molecule agonists, qHTS assay (AID 1346982); settings: PXR-Luc HepG2, CYP3A4 luciferase reporter, 24 h; series mostly up to 92.4 µM; further: potency means the concentration at half of the fitted maximal effect; nearly all actives have a fitted effect of over 35% in size
In short: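 Luciferase signal from ONE-Glo (30 min, room temperature) measured activation of hPXR-driven CYP3A4 reporter expression in PXR-Luc HepG2 cells treated with compounds for 24 hr at 37 C.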

[10] = biological target: Thyrotropin-releasing hormone receptor (Homo sapiens) (UniProt P34981); test: qHTS assay to identify small molecule antagonists of the thyrotropin-releasing hormone receptor (TRHR) signaling pathway (AID 1346877; active means well fitted inhibition curve with a large enough effect in the repeat runs, not every such curve was filed as active; inconclusive means weak or mixed curves; further: potency means the concentration at half of the fitted maximal effect); settings: TRHR-HEK293, TRH-induced calcium fluorescence, antagonist mode; series mostly up to 51.3 µM
UniProt P34981, sequence (P34981 whole entry, looked up): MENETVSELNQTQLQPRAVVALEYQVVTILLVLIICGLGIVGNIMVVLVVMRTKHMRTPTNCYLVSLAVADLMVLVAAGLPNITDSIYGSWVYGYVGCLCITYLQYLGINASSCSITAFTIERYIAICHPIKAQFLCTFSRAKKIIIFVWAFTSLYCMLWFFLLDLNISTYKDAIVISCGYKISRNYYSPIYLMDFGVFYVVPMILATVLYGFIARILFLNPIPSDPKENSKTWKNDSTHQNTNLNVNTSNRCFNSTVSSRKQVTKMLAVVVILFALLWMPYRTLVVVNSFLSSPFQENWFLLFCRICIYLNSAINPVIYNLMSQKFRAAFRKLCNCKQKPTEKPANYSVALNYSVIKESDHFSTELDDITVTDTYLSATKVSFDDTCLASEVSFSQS
In short: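 Intracellular calcium fluorescence, read kinetically every second over 3 min, reports TRH-evoked signalling in HEK293 cells carrying TRHR. Test compounds were added 5 min ahead of a 1 nM TRH challenge.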

[11] = biological target: Thyrotropin-releasing hormone receptor (Homo sapiens) (UniProt P34981); test: qHTS assay to identify small molecule agonists of the thyrotropin-releasing hormone receptor (TRHR) signaling pathway (AID 1346891; calls by dose curve; further: on the % scale 0 is the no-effect control and ±100 the full control effect); settings: TRHR-HEK293 calcium fluorescence, agonist mode; series mostly up to 57.6 µM
In short: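 Intracellular calcium rise, read as fluorescence every second for 3 min, served as the agonist signal in dye-loaded HEK293 cells expressing TRHR; each compound ran at 15 concentrations in triplicate.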

[12] = Caspase-3/7 induction in CHO-K1 cells by small molecules, qHTS cell viability counter screen (AID 1346979); settings: CellTiter-Fluor fluorescence, 17 h; series mostly up to 92.4 µM; further: potency means the concentration at half of the fitted maximal effect; nearly all actives have a fitted effect of over 35% in size
In short: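 Cells (CHO-K1, wild type) are plated at 1,500 per well and incubated 5hr. Test compounds in DMSO are then pinned in, followed by 16hr at 37C and 5% CO2. Viability is read by CellTiter-Fluor fluorescence after 1hr.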

[13] = biological target: Cytochrome P450 2C19 (Homo sapiens) (UniProt P33261); test: Cytochrome P450 Family 2 Subfamily C Member 19 (CYP2C19) small molecule antagonists: luciferase reporter qHTS assay (AID 1671197); settings: P450-Glo CYP2C19 enzyme, luciferin luminescence, 1 h; series mostly up to 115 µM; further: potency means the concentration at half of the fitted maximal effect; nearly all actives have a fitted effect of over 65% in size
UniProt P33261, sequence (P33261 whole entry, looked up): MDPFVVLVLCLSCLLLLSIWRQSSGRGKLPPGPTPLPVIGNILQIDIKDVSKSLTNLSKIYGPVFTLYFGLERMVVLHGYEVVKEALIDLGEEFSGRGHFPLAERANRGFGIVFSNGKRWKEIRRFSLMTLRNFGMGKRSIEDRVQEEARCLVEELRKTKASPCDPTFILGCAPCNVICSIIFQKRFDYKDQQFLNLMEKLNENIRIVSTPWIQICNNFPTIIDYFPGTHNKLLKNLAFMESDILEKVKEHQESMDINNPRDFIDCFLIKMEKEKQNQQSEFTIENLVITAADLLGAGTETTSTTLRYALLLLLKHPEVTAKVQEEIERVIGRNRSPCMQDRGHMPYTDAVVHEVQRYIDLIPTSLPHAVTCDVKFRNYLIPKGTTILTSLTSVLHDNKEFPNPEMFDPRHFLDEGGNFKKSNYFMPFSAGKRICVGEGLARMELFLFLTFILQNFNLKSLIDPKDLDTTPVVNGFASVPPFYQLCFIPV
In short: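 P450-Glo CYP2C19 screening system; proluciferin substrate; DMSO compound stocks; 10 min RT preincubation; NADPH regeneration, 1 h at 37C; luciferin detection reagent, 20 min RT; luminescence as RLU.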

[14] = biological target: Nuclear receptor subfamily 1 group I member 2 (Homo sapiens) (UniProt O75469); test: Human pregnane X receptor (PXR) activation by small molecules, qHTS assay (AID 1346985); settings: DPX-2 HepG2 CYP3A4-luciferase, 24 h; series mostly up to 38.3 µM; further: potency means the concentration at half of the fitted maximal effect; nearly all actives have a fitted effect of over 40% in size
In short: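 DPX-2 cells (HepG2 co-transfected with a PXR response element and a CYP3A4-promoter luciferase construct) were seeded at 2,000 per well, rested 5 hr at 37C, then exposed to DMSO-dissolved compounds for 24 hr. Activation was read as luciferase luminescence.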

[15] = biological target: Acetylcholinesterase (Homo sapiens) (UniProt P22303); test: Acetylcholinesterase (AChE) small molecule antagonists: enzyme-based qHTS assay (AID 1347397; calls by dose curve; further: on the % scale 0 is the no-effect control and ±100 the full control effect; nearly all actives have a fitted effect of over 55% in size); settings: Potency: AChE enzyme activity inhibition; series mostly up to 115 µM
In short: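 rhAChE 50 mU/mL (dispensed) + cpd or DMSO, 30 min RT; add DTNB/acetylthiocholine cocktail, 10 min RT; colorimetric thiocholine readout. qHTS, 1536-well format.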

[16] = biological target: Nuclear receptor subfamily 1 group I member 2 (Rattus norvegicus) (UniProt Q9R1A7); test: Rat pregnane X receptor (rPXR) activation by small molecules, qHTS assay (AID 1346983); settings: rPXR luciferase reporter cells, One-Glo luminescence, 24 h; max activation: stronger effect = higher value; further: potency means the concentration at half of the fitted maximal effect; nearly all actives have a fitted effect of over 20% in size
UniProt Q9R1A7, sequence (Q9R1A7 whole entry, looked up): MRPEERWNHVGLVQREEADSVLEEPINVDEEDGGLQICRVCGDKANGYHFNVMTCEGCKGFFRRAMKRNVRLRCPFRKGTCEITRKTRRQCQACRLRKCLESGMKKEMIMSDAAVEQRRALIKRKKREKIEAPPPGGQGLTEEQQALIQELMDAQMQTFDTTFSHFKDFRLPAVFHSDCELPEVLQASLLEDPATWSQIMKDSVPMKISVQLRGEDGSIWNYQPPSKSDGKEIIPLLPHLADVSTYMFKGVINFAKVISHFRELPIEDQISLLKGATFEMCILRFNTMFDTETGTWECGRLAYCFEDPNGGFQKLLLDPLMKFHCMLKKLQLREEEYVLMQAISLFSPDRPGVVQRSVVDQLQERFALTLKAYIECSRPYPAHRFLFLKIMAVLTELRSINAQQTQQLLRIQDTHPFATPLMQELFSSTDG
In short: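 Luminescent readout (One-Glo luciferase, 30 min room temperature) followed 24 hr compound treatment at 37 C of rPXR cells plated 2,000 per well and preincubated 5hr; qHTS format with compounds delivered in DMSO.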

[17] = biological target: Acetylcholinesterase (Homo sapiens) (UniProt P22303); test: Acetylcholinesterase (AChE) small molecule antagonists: fluorescence cell-based qHTS assay (AID 1347398; calls by dose curve; further: potency means the concentration at half of the fitted maximal effect; nearly all actives have a fitted effect of over 50% in size); settings: SH-SY5Y cells; Potency: AChE activity; series mostly up to 115 µM
In short: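 Read-out is Thiolite Green fluorescence at Ex/Em = 490/520 nm, formed by reaction with thiocholine released when cellular AChE in SH-SY5Y cells hydrolyzes acetylthiocholine. Compounds were preincubated 30 min at 37 C before substrate.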

[18] = activity, negative = inhibition: at 76.8 µM (top of the series) unless noted
Tags describe the fitted curve by direction and shape or compound fluorescence and quenching.

CCC(C)(CC)c1cc(NC(=O)c2c(OC)cccc2OC)on1
Potency [1]: inconclusive: 10.5 µM [cytotoxic, full curve, poor fit] | Potency [2]: inconclusive: 77.2 µM [cytotoxic, single point] | Potency [3]: inconclusive: 89.6 µM [inhibitor, partial curve, poor fit] and inconclusive: 54.3 µM [inhibitor, partial curve] | Potency [4]: inconclusive: 79.9 µM [inhibitor, partial curve, poor fit]

COC(N)=O
Potency [5]: inactive

O=[N+]([O-])c1ccc2ccc3cccc4ccc1c2c34
Potency [5]: inconclusive: 48.9 µM [rising, partial curve] | Potency [6, 18]: inconclusive: 54.9 µM [rising, single point] | Potency [7]: inconclusive: 30.6 µM [cytotoxic, partial curve] | Potency [2]: active: 27.3 µM

C=CCC1([C@H](C)CCC)C(=O)NC(=O)NC1=O
Potency [5]: inactive

[Cl][Sn]([c]1ccccc1)([c]1ccccc1)[c]1ccccc1
Potency [5]: inconclusive: 0.737 µM [rising, full curve] | Potency [6, 18]: inconclusive: 1.31 µM | Potency [8]: active: 0.326 µM | Potency [9]: inconclusive: 0.58 µM [activator, single point]

Oc1c(Cl)c(Cl)c(Cl)c(Cl)c1Cl
Potency [5]: inactive | Potency [10]: inconclusive: 33.2 µM [inhibitor, partial curve] and inconclusive: 30.1 µM [inhibitor, partial curve] | Potency [11]: inactive | activity, negative = inhibition [6, 18]: inconclusive: -15.9% | Potency [7]: inconclusive: 70.8 µM [cytotoxic, single point] and inconclusive: 34.3 µM [cytotoxic, single point] and inconclusive: 68.6 µM [cytotoxic, single point] | Potency [2]: inconclusive: 75.4 µM [cytotoxic, single point] and inconclusive: 61.1 µM [cytotoxic, partial curve, poor fit] | Potency [9]: inconclusive: 30.6 µM [activator, single point] | Potency [4]: inactive and active: 796 nM

N#CC(CCc1ccc(Cl)cc1)(Cn1cncn1)c1ccccc1 (configuration not stated)
Potency [1]: inconclusive: 54.9 µM [cytotoxic, single point] | Potency [12]: active: 43.3 µM | Potency [4]: inconclusive: 44.8 µM [inhibitor, partial curve, poor fit] | Potency [13]: active: 0.2 µM

C[C@]12C/C(=C/O)C(=O)C[C@@H]1CC[C@@H]1[C@@H]2CC[C@@]2(C)[C@H]1CC[C@]2(C)O
Potency [8]: inconclusive: 61.7 µM [activator, partial curve, poor fit]

IC(I)=C(I)I
Potency [8]: active: 4.86 µM

Cc1c(Cl)c(=O)oc2cc(OP(=O)(OCCCl)OCCCl)ccc12
Potency [14]: inconclusive: 15.8 µM [activator, partial curve, poor fit]

CC(C)=CC1C(C(=O)OCc2cccc(Oc3ccccc3)c2)C1(C)C (configuration not stated)
Potency [14]: inconclusive: 28.2 µM [activator, single point]

Cc1ncc(CNC(=O)N(CCCl)N=O)c(N)n1
Potency [15]: inactive

C=CC[C@]1(O)CC[C@H]2[C@@H]3CCC4=CC(=O)CCC4=C3C=C[C@@]21C
Potency [15]: inactive

C=CCOC(Cn1ccnc1)c1ccc(Cl)cc1Cl (configuration not stated)
activity, negative = inhibition ([6]; at 35.3 µM (top of the series)): inconclusive: -6.03% | activity, negative = inhibition ([6]; at 76.8 µM (top of the series)): inconclusive: -15.9% and inconclusive: -15%

Clc1ccc(CO/N=C(\Cn2ccnc2)c2ccc(Cl)cc2Cl)c(Cl)c1
Potency [16]: active: 25.1 µM

Clc1ccc(CSC(Cn2ccnc2)c2ccc(Cl)cc2Cl)cc1 (configuration not stated)
Potency [14]: inconclusive: 1.12 µM [activator, full curve, poor fit]

COP(=S)(OC)SCn1nnc2ccccc2c1=O
Potency [17]: inconclusive: 69.6 µM [inhibitor, partial curve, poor fit] and inconclusive: 35.6 µM [inhibitor, partial curve]

CN(C)CCc1c[nH]c2cccc(O)c12
Potency [17]: inconclusive: 11.1 µM [inhibitor, full curve]

CC(C)OC(=S)S
Potency [8]: inconclusive: 19.3 µM [activator, partial curve]

Oc1c(Br)cc(Br)cc1Br
Potency [8]: inactive

CC(C)Nc1ccc(Nc2ccccc2)cc1
Potency [16]: inconclusive: 25.1 µM [activator, partial curve] | Potency [17]: inconclusive: 39.8 µM [inhibitor, partial curve] and inconclusive: 35.6 µM [inhibitor, partial curve, poor fit]
